In article PMC4336329 (PLoS ONE, 2015):
Out of some 310,000 compounds screened, about 14,000 (4.5%) showed an effect of 50% or more. Effects have a minus sign here. The list shows a part of the results.

Each compound was assayed against human ether-à-go-go-related gene (hERG) potassium channel (human, UniProt Q12809) (assay: primary screen, population patch clamp on CHO cells stably expressing hERG).
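Note: peak tail current of the secondary pulse compared with the same well before compound.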

human ether-à-go-go-related gene (hERG) potassium channel, sequence (Q12809 whole entry, looked up): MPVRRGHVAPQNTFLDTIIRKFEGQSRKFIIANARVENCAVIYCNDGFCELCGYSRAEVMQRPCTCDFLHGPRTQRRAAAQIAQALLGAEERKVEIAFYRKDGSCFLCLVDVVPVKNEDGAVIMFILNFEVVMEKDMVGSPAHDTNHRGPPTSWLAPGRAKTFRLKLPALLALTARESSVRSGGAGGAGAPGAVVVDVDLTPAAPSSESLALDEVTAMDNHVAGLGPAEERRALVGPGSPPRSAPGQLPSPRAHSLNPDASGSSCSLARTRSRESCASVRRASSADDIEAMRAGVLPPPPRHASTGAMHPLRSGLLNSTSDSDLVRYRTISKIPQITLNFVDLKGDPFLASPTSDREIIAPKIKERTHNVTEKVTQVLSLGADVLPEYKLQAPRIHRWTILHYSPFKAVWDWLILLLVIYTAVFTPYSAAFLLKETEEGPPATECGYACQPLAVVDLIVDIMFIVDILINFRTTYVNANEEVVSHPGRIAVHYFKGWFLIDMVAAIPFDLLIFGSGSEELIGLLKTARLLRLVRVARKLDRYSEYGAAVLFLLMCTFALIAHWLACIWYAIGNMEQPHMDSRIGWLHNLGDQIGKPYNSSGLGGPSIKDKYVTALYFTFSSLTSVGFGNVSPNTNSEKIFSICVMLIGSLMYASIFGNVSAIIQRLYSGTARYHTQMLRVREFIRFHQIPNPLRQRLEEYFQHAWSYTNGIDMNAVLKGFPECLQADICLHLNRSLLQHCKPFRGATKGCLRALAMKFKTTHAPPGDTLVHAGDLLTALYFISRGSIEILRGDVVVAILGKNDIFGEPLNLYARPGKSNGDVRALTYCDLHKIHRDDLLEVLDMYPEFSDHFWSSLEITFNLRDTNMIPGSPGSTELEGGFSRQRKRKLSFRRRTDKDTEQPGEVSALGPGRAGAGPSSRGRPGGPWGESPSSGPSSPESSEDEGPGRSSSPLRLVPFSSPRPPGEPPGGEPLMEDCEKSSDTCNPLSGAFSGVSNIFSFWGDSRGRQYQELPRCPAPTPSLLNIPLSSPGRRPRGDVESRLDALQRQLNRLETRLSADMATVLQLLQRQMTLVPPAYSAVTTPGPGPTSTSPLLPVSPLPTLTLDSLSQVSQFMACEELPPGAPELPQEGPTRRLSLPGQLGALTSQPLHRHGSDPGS

Row | SMILES | hERG current change (%, negative = inhibition) at 10uM [%]
1 | COC(=O)C(O)(CC(=O)Nc1ccccc1OC)C(F)(F)F (stereo not shown) | 4.02
2 | O=C(CN1CCC(NC(=O)c2ccc(F)cc2)CC1)NCc1ccccc1F | -22.5
3 | COc1ccc(-c2c(-c3cc(OC)cc(OC)c3)n(C)c3ccc(-c4cc(F)cc(OC)c4)cc23)cc1 | 16.5
4 | CCC(=O)N1CCN=C1SCc1cccc(F)c1 | 2.06
5 | O=C(COc1cccc(Cl)c1)Nc1cc(S(=O)(=O)N2CCOCC2)ccc1N1CCOCC1 | -24.6
6 | N#CCN(C(=O)COC(=O)C1CC2CCCC(C1)C2=O)c1ccccc1 (stereo not shown) | 14.7
7 | COc1cccc(C2C(C(=O)c3sc(C)nc3C)=C(O)C(=O)N2CCN2CCOCC2)c1OC (stereo not shown) | 10.7
8 | O=C(Nc1ccc(S(=O)(=O)Nc2cnc3ccccc3n2)cc1)c1ccc(Br)o1 | -11.8
9 | C[C@H](NC(=O)[C@@H]1CCC(=O)N1Cc1ccco1)c1ccccc1 | 9.86
10 | CCCC[C@@H]1C[C@H]1[C@@H](NC(=O)c1cccs1)c1ccc(C(F)(F)F)cc1 | -1.01
11 | O=C(NCc1ccco1)C12CN(Cc3ccccc3)CC1C(c1cccc([N+](=O)[O-])c1)=NO2 (stereo not shown) | -46.6
12 | O=[N+]([O-])c1cccc(S(=O)(=O)NCCCN2CCOCC2)c1 | -4.75
13 | COc1ccc(CCN2C(=O)CSC2=Nc2ccc(C(C)C)cc2)cc1OC | 10.2
14 | CC(Nc1cc(N2CCN(C(=O)C(C)(C)C)CC2)ccc1[N+](=O)[O-])c1ccccc1 (stereo not shown) | -10.1
15 | COCCCN1C(=O)c2ccc(C(=O)Nc3ccc(OC)cc3OC)cc2C1=O | -0.271
16 | N#CCCCn1c(O)c(N=NC(=O)C(O)c2ccccc2)c2ccccc21 (stereo not shown) | -2.55
17 | COc1ccc(C)cc1NC(=O)C(C)N1CCOCC1.Cl (stereo not shown) | 9.06
18 | CC(=O)Nc1nc(Cn2nnc(-c3ccc4c(c3)OCO4)n2)nc(N(C)C)n1 | -32.8
19 | Cc1ccc(NC(=S)NC(=O)Cc2ccccc2)c(O)c1 | 3.87
20 | CCc1ccccc1N(CC(=O)O)S(C)(=O)=O | 5.41
21 | CCN1C(=O)[C@@H]2[C@@H](c3ccc(-c4ccc(OC)cc4)cc3)N3CCCC[C@@]3(C(=O)OC)[C@@H]2C1=O.O=C(O)C(F)(F)F | -2.42
22 | CN(C(=O)COc1ccc2c(-c3ccccc3)cc(=O)oc2c1)C1CCS(=O)(=O)C1 (stereo not shown) | -17.1
